Some of the results follow. Each Rep nickase domain was tested in vitro on the same pool of single strands at 3 µM enzyme and 37 °C for 1 h; the strands have 90 letters, of which the middle is given. Values are log2 of uncut reads against the no-enzyme pool; the lower, the more was cut; hits are not called. Reads are scaled to the total; where an enzyme cuts many sequences, the uncut ones exceed 0.
What follows are sequences tested on T1, Rep nickase domain of tomato golden mosaic virus (assay: uncleaved DNA left, log2 of reads against the no-enzyme library (log2 ratio); higher = less cleavage (more negative = more Rep cleavage of the k-mer); sequences stand for … in CTCGTCCG…ACCGGAGA).
T1 sequence (protein, residues 1-124, tag omitted): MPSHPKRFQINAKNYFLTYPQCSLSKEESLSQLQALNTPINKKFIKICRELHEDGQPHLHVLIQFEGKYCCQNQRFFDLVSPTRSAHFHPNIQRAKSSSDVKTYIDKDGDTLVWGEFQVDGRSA
Description: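 A pool of 90-nt single-stranded DNAs with seven random bases just before the constant AC of the nick site (name = the seven bases) was cut by 3 µM recombinant His6-SUMO-tagged Rep nickase domain (300 nM DNA, 50 mM HEPES pH 8.0, 50 mM NaCl, 1 mM MnCl2, 1 h, 37 °C, three replicates). Uncut DNA was amplified and sequenced.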

| Sequence | uncleaved DNA left (log2) |
| --- | --- |
| TGTAGGT | 0.0128 |
| CTCGTAA | 0.0691 |
| GTACACG | -0.0313 |
| GTCGTCT | -0.0155 |
| AAAACTG | -0.0451 |
| AAACAAC | -0.0453 |
| GCTTCGC | 0.023 |
| GGGGCCA | 0.0112 |
| AAGTATC | 0.0653 |
| GCAACCC | -0.0417 |
| TGAACGA | -0.0648 |
| ATCTTGA | -0.0541 |
| GAATTTG | -0.0457 |
| CAGCTGT | 0.00146 |
| TGTCGCA | -0.0893 |
| CTTATGA | 0.0569 |
| GGTTAAA | 0.185 |
| TTTGCAA | -0.0149 |
| CACTGTC | -0.253 |
| TGCTTTT | -0.123 |

| Sequence | uncleaved DNA left (log2) |
| --- | --- |
| AGAGAGT | 0.0738 |
| TGTAGTC | 0.0262 |
| TGTAAAT | 0.0866 |
| TCAGGAA | 0.0638 |
| ATCGAGG | 0.133 |
| CCAGTAT | -0.0544 |
| GCCTTAC | 0.0714 |
| CCCTAGA | 0.0345 |
| CGCGGCA | -0.0341 |
| GAGCATC | -0.0552 |
| GCCTCTA | 0.0946 |
| GGTCCAG | 0.15 |
| CCCTCAG | -0.0894 |
| TATTGGT | -0.161 |
| ATCAGGA | 0.0994 |
| ATTTCCT | -0.0319 |
| CCCACAG | -0.0252 |
| GGCTATT | -0.0587 |
| AAGAGCC | -0.00598 |
| GCTGCCC | 0.00594 |
